According to a collection of fitness landscapes (doi:10.1016/j.celrep.2020.107928):
Whole data set: some 81,000 sequences, median “one-hybrid fitness for binding NBS DNA” near -0.1, cut for the highest 2% near 0.36. Some of the results follow.

B1: Caulobacter ParB omega fusion; a variant is named by its letters at X, in order, B8GW30 (parent)
chain: MESVVVGEPGMSEGRRGLGRGLSALLGEVDAAPAQAPGEQLGGSREAPIEILQRNPDQPRRTFREEDLEDLSNSIREKGVLQPILVRPSPDTAGEYQIVAGERAWRAAQRAGLKTVPIMVRELDDLAVLEIGIIENVQRADLNVLEEALSYKVLMEKFERTQENIAQTIGKSXSHVANXMRLLXLPDEVQSYLVSGELTAXHARAIAAAADPVALAKQIIEGGLSVRETEALARKAPNLSAGKSKGGRPPRVKDTDTQALESDLSSVLGLDVSIDHRGSTGTLTITYATLEQLDDLCNRLTRGI

Variants of: B1
Assay: one-hybrid fitness for binding NBS DNA (the Noc-binding site; scaled: cognate 1, non-cognate 0); higher = stronger binding
Conditions: with NBS DNA site
Procedure, shortened: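 On M9-minus-histidine containing 0.1 mM IPTG and 5 mM 3-AT, E. coli USO cells with a HIS3 reporter, site 19 bp from the promoter, grew 48 hours at 37°C to select Caulobacter ParB libraries randomised at four specificity codons. Plasmids from before and after were Illumina-sequenced, with three replicate libraries pooled and variants under 10 reads left out. Fitness is the log change in variant-to-wild-type read ratio, rescaled against cognate and non-cognate.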

one-hybrid fitness for binding NBS DNA, 0.228:
REKR
QRQD

one-hybrid fitness for binding NBS DNA, 0.304:
QTNK

one-hybrid fitness for binding NBS DNA, 0.449:
QKSS

one-hybrid fitness for binding NBS DNA, ≤ 0.2:
IDPS
DSGM
QWCC
VHAT
YVYT
VGSW
RVCF
AYKL
PEMR
MERK
RHFF
YQPY
YNSA
WTIR
ENMR
GTYL
RVKF
QEWG
DAFT
MGGS
VYEG
PCPC
WDLT
ICNS
EVLG
DTDS
CFRR
SDNG
EKIR
THER
ECMG
WAES
SDQF
PAVT
QNHF
WMHM
IANA
NYIS
LPNS
HGVG
MRAR
RFSL
LEYT
TPRL
MLPY
ISIR
FLCS
RKFV
SYPT
RAMC
SDRM
SNIY
KTDT
SAFR
PTVV
PRED
ADHC
AVLP
MHAV
QDWR
KTRY
AFYS
RESG
YDVR
TKYA
QTNP
CNST
IPYS
MGTW
RQSI
DSSQ
AQTL
DTGR
QGSP
FPEP
LIIC
NYTF
DLPS
IINN
VPCA
FPVG
AGPP
LLGC
QIHL
AAYI
RCGM
YLDF
LPEN
RFCA
WYKC
SSKY
GLRG
FRTL
ASQC
YSSL
SYCN
ADAI
AHKV
DFNR
HFGT
PSNT
AKIS
DLAY
CTTR
EGCK
KRIY
SGQN
RCAY
KIAT
NTTS
PQWR
KTSN
MGQM
NDRR
AEAV
KIEG
PLTN
CHNS
QCLG
NDLR
PVMG
AHMC
LKDL
SISC
TDVE
SIRK
WKSI
PWLY
LTKW
VHSS
HGKC
RCNF
TDTP
YFAF
HKYW
GVVV
FLTW
VIDS
NPTV
AVNC
HAGE
GVTT
NVLV
INWR
QPSL
RDDM
QWGG
KYYG
LYTD
EYDL
MLAY
AHVT
TRAP
MTMK
LNVC
VMET
LYPH
YPET
WAAS
MQNL
QYVC
ATTR
QLKF
VVWL
VMVC
TLGK
GRGV
FTFS
DVGR
PLLM
INCD
SDVD
ISGS
FSGC
SGAA
KTRE
KSRF
PVIP
CTSW
RNTK
IKTL
RYCP
MTHF
FCNS
SPTD

one-hybrid fitness for binding NBS DNA, 0.238:
RCQA

one-hybrid fitness for binding NBS DNA, 0.335:
RLKC

one-hybrid fitness for binding NBS DNA, 0.288:
NDKR

one-hybrid fitness for binding NBS DNA, 0.318:
QVQT

one-hybrid fitness for binding NBS DNA, 0.368:
RHGS

one-hybrid fitness for binding NBS DNA, 0.317:
QMLS
